# Results from publication PMC4336329 (PLoS ONE, 2015).
# Hit rate of the full screen: of about 310,000 compounds, about 2,200 (0.71%) showed an effect of 50% or more. Effects have a minus sign here. The list shows a part of the results.
# Molecular target: human ether-à-go-go-related gene (hERG) potassium channel (human, UniProt Q12809)
# Test: primary screen, population patch clamp on CHO cells stably expressing hERG
# Chain of human ether-à-go-go-related gene (hERG) potassium channel (Q12809 whole entry, looked up): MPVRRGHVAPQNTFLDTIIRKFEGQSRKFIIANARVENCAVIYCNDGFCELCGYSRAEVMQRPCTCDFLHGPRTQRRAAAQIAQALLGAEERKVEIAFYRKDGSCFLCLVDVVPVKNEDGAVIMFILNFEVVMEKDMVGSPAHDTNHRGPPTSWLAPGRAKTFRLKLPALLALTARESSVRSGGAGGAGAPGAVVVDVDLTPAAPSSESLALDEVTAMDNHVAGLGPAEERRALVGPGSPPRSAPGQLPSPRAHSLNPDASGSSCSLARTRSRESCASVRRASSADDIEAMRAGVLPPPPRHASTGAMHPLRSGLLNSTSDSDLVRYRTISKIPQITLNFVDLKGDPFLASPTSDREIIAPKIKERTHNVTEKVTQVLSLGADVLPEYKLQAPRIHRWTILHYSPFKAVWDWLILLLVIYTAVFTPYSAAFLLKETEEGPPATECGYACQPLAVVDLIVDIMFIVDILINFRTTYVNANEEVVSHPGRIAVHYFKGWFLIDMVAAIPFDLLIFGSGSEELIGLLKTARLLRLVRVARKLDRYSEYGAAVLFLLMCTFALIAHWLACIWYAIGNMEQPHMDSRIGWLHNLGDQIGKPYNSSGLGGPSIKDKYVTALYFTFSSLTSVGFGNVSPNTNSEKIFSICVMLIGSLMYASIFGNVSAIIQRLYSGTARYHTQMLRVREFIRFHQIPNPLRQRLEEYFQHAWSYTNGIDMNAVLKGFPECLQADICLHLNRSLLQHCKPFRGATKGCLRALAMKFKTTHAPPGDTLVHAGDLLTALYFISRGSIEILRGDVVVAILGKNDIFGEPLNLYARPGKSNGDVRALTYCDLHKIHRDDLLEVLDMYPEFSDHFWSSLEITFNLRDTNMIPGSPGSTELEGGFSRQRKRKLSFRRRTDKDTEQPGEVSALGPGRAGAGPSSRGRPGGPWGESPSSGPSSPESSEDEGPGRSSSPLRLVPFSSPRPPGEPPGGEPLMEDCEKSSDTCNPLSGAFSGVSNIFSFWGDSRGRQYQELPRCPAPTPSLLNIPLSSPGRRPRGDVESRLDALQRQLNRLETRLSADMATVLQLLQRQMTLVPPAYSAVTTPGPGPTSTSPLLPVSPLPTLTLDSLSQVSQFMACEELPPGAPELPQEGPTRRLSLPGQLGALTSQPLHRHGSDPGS
row,SMILES,"hERG current change (%, negative = inhibition) at 1uM"
1,O=C(Oc1ccc2c(c1)OCC2=O)c1ccc(Cl)cc1,2.37%
2,CS(=O)(=O)N1CCCC(C(=O)Nc2ccccc2)C1 (stereo not drawn),15.9%
3,COC(=O)CN=Cc1c(C)[nH]n(-c2ccccc2)c1=O,1.8%
4,O=S(=O)(c1ccc(F)cc1)N1CCN(C(=S)NCc2ccccc2)CC1,12.3%
5,Cc1cccc(C(=O)c2ccccc2C(=O)O)c1O,17.9%
6,O=C(CCN1C(=O)c2cccc3cccc(c23)C1=O)N1CCOCC1,10%
7,C=C(C)Cn1c(SCC(=O)O)nnc1-c1ccc(OC)cc1,8.41%
8,Cc1cc(NC(=O)c2ccccc2F)n(C(C)(C)C)n1,10.6%
9,Cc1ccc(C)c(-c2csc(NC(=O)c3cnccn3)n2)c1,1.78%
10,Cc1cccc(N=C2NC(=O)C(CO)(CO)S2)c1,17.4%
11,CCOc1ccccc1-c1cc(-c2ccc(OC)cc2)nc2c1c(=O)n(C)c(=O)n2C,2.22%
12,CC(=O)N(c1ccc(Br)cc1)C1C=CS(=O)(=O)C1 (stereo not drawn),1.97%
13,Cc1ccc(-c2cc(N)n[nH]2)cc1,5.46%
14,COc1ccccc1NC(=O)C(=O)NCC(c1ccco1)N1CCc2ccccc21 (stereo not drawn),4.21%
15,Cc1noc(/C=C/N(C)C)c1S(=O)(=O)N1CCCC(C(=O)NC2CCCCC2)C1 (stereo not drawn),5.34%
16,O=c1c2cc(Cl)ccc2oc2nc3n(c(=O)c12)CCCS3,3.67%
17,O=C(NNc1cccc(Cl)c1)c1cccnc1Cl,18.2%
18,O=C(NC1CC1)C1CCC(=O)N1C1CCCC1 (stereo not drawn),2.73%
19,CCOc1ccc(Nc2cc(C)nc(-n3nc(C)cc3C)n2)cc1,4.76%
20,COc1ccc(OC)c(CNC(=O)CCC(=O)N2Cc3cccc(OC)c3Oc3ncccc32)c1,3.4%

row,SMILES,"hERG current change (%, negative = inhibition) at 1uM"
1,CCOc1ccc(C2CC(=O)n3nc(C45CC6CC(CC(C6)C4)C5)nc3S2)cc1OC (stereo not drawn),6.37%
2,Cc1ccc(Nc2n[nH]c(C)c2[N+](=O)[O-])cc1C,15.7%
3,Cc1[nH]nc(NCCO)c1[N+](=O)[O-],-3.88%
4,O=C1c2ccccc2COc2ccc(O)cc21,17.8%
5,O=C(CNC(=O)c1ccco1)N/N=C/c1ccc(O)cc1O,12.9%
6,CC#CCOC(=O)c1c(C)nc2sc3c(c2c1N)CCC(O)C3 (stereo not drawn),7.48%
7,CCc1cc(=O)oc2cc(OC(C)C(=O)NCCCn3ccnc3)ccc12 (stereo not drawn),15.2%
8,CCN(CC)c1ccc(C=C2C(=O)OC(c3ccccc3)OC2=O)cc1 (stereo not drawn),17.9%
9,CC(=O)Nc1ccc(S(=O)(=O)NCC2CCC(C(=O)NCCC(C)C)CC2)cc1 (stereo not drawn),12.6%
10,C1CCC(NC2=NCCC2)CC1.Cl,4.48%
11,CC(OC(=O)CNS(=O)(=O)/C=C/c1ccccc1)C(=O)Nc1ccc(S(=O)(=O)N2CCCC2)cc1 (stereo not drawn),4.24%
12,NC(=O)C1CCN(C(=O)CNC(=O)c2ccccc2)CC1,0.314%
13,NC(=O)NC(CC(=O)NCCCc1ccccc1)c1ccccc1Cl (stereo not drawn),12.6%
14,C/C(=N\NC(=O)c1ccncc1)c1cccnc1,17.3%
15,Cc1cc(C(=O)O)oc(=O)c1,15%
16,CCOC(=O)N1CCC(NC(=O)c2sc3nc4n(c(=O)c3c2C)CCCC4)CC1,7.38%
17,COc1ccc(-c2c[n+](CC(=O)OC3CC(C)CCC3C(C)C)c3n2CCC3)cc1.[Cl-] (stereo not drawn),-29.9%
18,CCCN1CCN(S(=O)(=O)c2ccc(-n3cnnn3)cc2)CC1,-7.76%
19,Cc1ccnc(NC(=O)c2ccoc2C)c1,3.67%
20,O=[N+]([O-])c1ccc(Cl)c(/C=N/N2CCN(Cc3ccccc3)CC2)c1,4.38%

row,SMILES,"hERG current change (%, negative = inhibition) at 1uM"
1,CN/S(=N/S(=O)(=O)c1ccccc1)c1ccc(C)cc1 (stereo not drawn),1.15%
2,COc1ccccc1CN(C)C(=O)C1(c2ccc(Cl)cc2)CC1,4.98%
3,Cc1nnc(SCC(=O)Nc2ccc(Cl)cn2)s1,15.8%
4,COc1ccc(NC(=O)CN(C)C(=O)CNC(=O)c2ccc(C)s2)cc1,12.1%
5,Cc1cccc(-n2nc(C)c3c2NC2=C(C(=O)CCC2)C3c2ccccn2)c1 (stereo not drawn),-1.5%
6,CC(=O)N=c1c(C#N)cc2c(=O)n3ccccc3nc2n1Cc1ccccc1,-10.2%
7,Cc1cccn2c(=O)c3cc(C(=O)NC4CCCCC4)n(C)c3nc12,13.8%
8,O=C1C=C(c2ccc(-c3ccccc3)c(F)c2)C[C@@H](c2ccc(Cl)cc2)C1,14.2%
9,O=C(O)C1CCCCC1C(=O)Nc1ccc(S(=O)(=O)N2CCCC2)cc1 (stereo not drawn),12.9%
10,COc1ccc(CCNC(=O)CSc2ccc(Br)cc2)cc1OC,1.45%
11,NC(=O)NNc1ncc(C(F)(F)F)cc1Cl,3.81%
12,COc1ccccc1Nc1nnc(SCC(=O)N2CCCC2=O)s1,2.93%
13,Cc1ccccc1N(CC(=O)NCC1CCCO1)C(=O)CCC(=O)Nc1nccs1 (stereo not drawn),21.7%
14,Cc1[nH]c2ccccc2c1C(=O)COc1ccccc1,10.9%
15,Cc1cc(C)c(OCCN2CCOCC2)c(Cl)c1,12.1%
16,CN(Cc1ccccc1)C(=O)c1oc(=O)c2ccccc2c1-c1ccccc1,2.77%
17,CC(C)(C)NNC(=S)Nc1ccc(S(=O)(=O)N2CCOCC2)cc1,14.9%
18,Oc1c(C=C2N=c3ccccc3=N2)sc(=S)n1-c1ccc2ccccc2c1,2.05%
19,CC(C)c1ccc(C(=O)N/N=C/c2cccc(Cl)c2Cl)cc1,11.4%
20,CC(C)C(C(=O)Nc1ncn[nH]1)N1C(=O)c2ccccc2C1=O (stereo not drawn),15.2%
